# Results from the RNAGym collection of RNA variant scans (doi:10.7554/elife.90254).
# Read counts are not given, so values of variants with three or more changes are uncertain.
# B1: LINE1-mini (parent)
# chain: GGCAGAGCUCAACACAGCGUGGCAAAGUGGCUGUGGCUAGACUGCC
# Variants of: B1
# Assay: self-cleavage, relative activity (ratio to wild type); higher = more cleavage; in vitro, sequencing; the parent is a self-cleaving ribozyme
row,Variant,self-cleavage
1,G27A U28C A41G,0.15
2,A25U U32A A41U,0.21
3,A26U G27U G40U C46U,0.08
4,G27C G29A G35U G36A,0.45
5,A25U A26U C37U C42U,0.07
6,A26C C45U C46A,0.78
7,G27C A39C A41C C42U C45A,0.01
8,A26G C37A C45A,0.06
9,A25U G29U G35U,0.03
10,G27A U32G A41U C45A,0.02
11,A25U G27U G36A,0.16
12,A26G G33C G35A C42U,0
13,A26G U32A G44A,0.03
14,A25G U32A U38A,0.06
15,G27C U32C A39G,0.04
16,G27U C31A C45U,0.42
17,A26G G33U G40U,0
18,G27U U28C U43A,0.16
19,A25U U28G U43G,0.15
20,G27A U32C A39G A41C U43A,0.05
21,A25U A39G G44U C45U,0.03
22,G27C G29A G36C G40C,0.18
23,G27A U28C G33C,0.16
24,G27C U32A G35C U43G G44U C45A,0.02

row,Variant,self-cleavage
1,G27C A41C C42G,0
2,A25U G35C A39U,0
3,G27U G33C A41C,0.02
4,G27U G29C C45G,0.12
5,G27U G29C C45U,0.39
6,G27C G33U A39C,0.02
7,A25U A26U U32C,0.12
8,G27C U38C G40A,0.02
9,G27U G29C U32A C42U,0.05
10,G27U G29A A39C C42U,0.12
11,A26U G30U U34A,0.01
12,A26C G40C C42U,0
13,A26U G27U U28C G29A,0.45
14,A26C G33A G35U C37U,0.05
15,A25U C37U A41U,0.03
16,G27U G30U A39C C46A,0.32
17,G27A C31G G44A,0.12
18,A26U G40A A41C,0.11
19,G27C U32A G36U,0.04
20,A26G U32G A41G C45A,0
21,G27A G36U U43A,0.04
22,A26G A41U C46A,0.08
23,G27A G33C A39C,0.02
24,A26C G36U G40A C42A,0.06

row,Variant,self-cleavage
1,A25U G30U A41U,0.1
2,G27A G33A C42A C45U,0.01
3,A26C G29A C31A A41C U43G,0.05
4,A26G C31A G36A,0.36
5,G27U G35A G36C,0.2
6,G27U G33U C42A,0.05
7,A26U U32A C46G,0.18
8,A26C U28A G35U G36U A41U,0.1
9,A26G U34A G36U,0.06
10,A26C G30A G33U C37A,0.03
11,A26C C42G U43C,0.02
12,A26C G27U G44A,0.49
13,A26C G27U G29A G33C C37G,0.04
14,A26U G27U A39C,0.11
15,G27A G33U C37G A39C,0.02
16,A26G G33C C46U,0.06
17,G27A G40C U43G G44C,0.02
18,A26C G33C U34C,0.02
19,G27U G30U C46A,1.74
20,A25U G27U A39U,0.73
21,G27A G30A G44U,0.13
22,G27A G33U C42U,0.03
23,A25G U28A U34A,0.02
24,A26U U28A U43G,0

row,Variant,self-cleavage
1,G27A G33U G35A A39G,0.06
2,A25U A26C C45U,0.81
3,A25U G27U G30U U32C C42A,0.06
4,A26G U28C G30U U32G G44C,0.02
5,G27C G36U C46A,0
6,G27C G33A A39G,0.04
7,A26G G30A U32A,0.12
8,G27U G40U C46A,0.06
9,A26G G35A U38G,0
10,G27U U28G C31G G36U C37G,0.01
11,A25U C37U C42U U43C,0.04
12,A26G G36A A39C,0.06
13,A26U U32G U34G,0.02
14,G27U G36U A39U,0.02
15,G27C G35A U38G C42A,0.01
16,G27A U32G G40U,0.51
17,A25U U34A G44A C46G,0
18,A26C G27C C46A,2.09
19,G27U G30C C42A C45G,0.03
20,G27U G36C U38A,0.03
21,A26C G35U C45U,0.1
22,A25U A26U G40A,0.05
23,A26U G27U C45G,1.04
24,A25U U32A G33U U34A,0

row,Variant,self-cleavage
1,A26C G27U C31A,0.92
2,G27C A39G C45A,0.02
3,A25U G27A U28A,0.41
4,G27A G33U G36U,0.04
5,G27C U34A A41U,0.06
6,G27C U28C C31G C42G,0.05
7,A26C C31U A39G G44C,0.01
8,G27A C31U G44A,0.28
9,G27A G36A U43A,0.06
10,G27C G33U U43A,0.19
11,G27A U28C G29A A39G,0.1
12,A26U G33A C37A,0.04
13,A26U G30U G40C U43G G44A,0.01
14,A26C U32A C46U,0.08
15,A25U G27U G30A C31A,0.13
16,A26G G27A G40C,0.06
17,A26G G27A G40A,0.11
18,A25U G27C U34C A41U,0.08
19,G27U C31A G40C,0.48
20,G27A U34C C42G,0.05
21,A25U G35U U38G A41C G44C,0.03
22,G27A U28A G33U,0.38
23,G27U U34G G40C,0.01
24,A25U A39C C45G,0.33

row,Variant,self-cleavage
1,G27C U34A C42A,0.07
2,G27A G29C C46G,1.64
3,G27U U28G C31G U34C G35U,0.05
4,G27A U32C G36U C42U,0.12
5,G27U G40U G44A,0.06
6,A25U G27U G29U A41G C46G,0.11
7,G27A G29A C31U G33A U38A,0.02
8,G27A U32G G44A,0.03
9,G27C A39C G40U,0.07
10,G27C U28C C42A G44C,0.01
11,A25U G33U G44C,0.06
12,A25U C37A G44A,0.05
13,A26C A41U U43A,0.04
14,A26G C31U C42U,0.44
15,G27A C31A U38G,0.05
16,G27A G40U C46G,0.26
17,A25G G40U U43C C45G,0.26
18,A25U G33A C37U,0.03
19,A26C G30C G44C,0.3
20,G27A U43G C46A,0.01
21,A26U C31A G36C,0.05
22,A25U G44A C46A,0.03
23,A25U G27A C42G,0.05
24,A26G G29A U32G,0.03

row,Variant,self-cleavage
1,G27A G36A C42G,0.05
2,A26C G27C U38G,0.01
3,A25U C31A G44C,0.03
4,G27U G33C G36A,0.01
5,G27C C31G C45U,0.16
6,A26U G27C U43C,0.06
7,A25U G27A G33C C46A,0.03
8,A26U G33A G35C,0.02
9,A25U G35U A39C,0.06
10,A25U G35U A39G,0.03
11,G27C G36U C42U,0.02
12,A26C U28G C37U G44C,0.09
13,A26G U28A G35C,0.02
14,A26U U38A A39U,0.7
15,A25U A39G C42G,0.01
16,A26U G35A U43C,0.03
17,A25U G30U G33U C37U,0.19
18,A26C G30C C31A G40U,0.03
19,G27U A41C C42U,0.12
20,A25U G35U G44U,0.03
21,A26C G30C C31A,0.19
22,A26U G36A C37U,0.04
23,G27U C42A U43A,0.02
